For this series, the system named is ATP. Description: switch fluorescence ratio, 500 uM ATP over buffer (Cy3 cluster intensity, sum of 5 cycles each) (fold (ratio)); higher = stronger signal-on switching upon ATP binding; sequences stand for … in TCGTCGGCAGCGTCAGATGTGTATAAGAGACAGTTTTTTTTTTTTTTTTTTTTTTTTT…TC. The following applies: aptamer strand: ATP DNA aptamer (quencher-CACCTGGGGGAGTATTGCGGAGGAAGG + anchor), 100 nM annealed; ATP concentration: 500 uM; one replicate. In short, it runs like this:
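For every switch-domain sequence, the fluorescence ratio is the mean of per-cluster values, each being summed target-cycle Cy3 intensity over summed buffer-cycle Cy3 intensity. Clusters outside 100-1000 RFU were excluded. On a modified Illumina MiSeq flow-cell, the Cy3-labelled switching-strand clusters were annealed to 100 nM quencher-labelled ATP aptamer, imaged in selection buffer and then after 15 min with 500 uM ATP at 22 °C. Five such cycles were run, with NaOH stripping and re-annealing between them.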

Sequences with one replicate were seen in a single cluster, so their values are uncertain.

Experimental findings from the supplement of paper PMC10126150 are described below.
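Note: ATP exposure 15 min at 22 °C before imaging.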

Regarding ATGGGAATGG, the switch fluorescence ratio was 0.993.

Regarding GAGTACTCTG, the switch fluorescence ratio worked out at 1.03.

Turning to ACACCTATGG, the switch fluorescence ratio is 0.984.

Consider ACGATCGCCG, for which the switch fluorescence ratio came out at 1.03.

Regarding GTGTCTGAAG, the switch fluorescence ratio stood at 1.02.

For the sequence ATTGGCGTAC, the switch fluorescence ratio turned out to be 1.04.

As to GTAAGTTTGA, the switch fluorescence ratio turned out to be 0.973.

With ATAGCCCCCG, the switch fluorescence ratio is 1.02.

As for ATTTAATGAT, the switch fluorescence ratio is 1.02.

Take CCTGGCAAAG: the switch fluorescence ratio is 2.06.

For the sequence AAGGGAGTTT, the switch fluorescence ratio stood at 1.03.

For AAATACTAG, the switch fluorescence ratio came to 1.04.

Take TTTAGAGGCA: the switch fluorescence ratio amounted to 1.02.

As for TTTGCCCACG, the switch fluorescence ratio came out at 1.01.

In the case of TGCTGTAGCA, the switch fluorescence ratio was found to be 1.04.

Consider ATGACATGTT, for which the switch fluorescence ratio stood at 0.98.

Turning to GGTATACGAT, the switch fluorescence ratio worked out at 0.977.

Take ATGCCTTTCT: the switch fluorescence ratio came out at 0.989.

With AGTACCCCGC, the switch fluorescence ratio worked out at 1.2.

As for AAAAGTTGG, the switch fluorescence ratio worked out at 1.04.

With TAAGGCCAAC, the switch fluorescence ratio came to 1.04.

With TCGGGGTCTC, the switch fluorescence ratio amounted to 1.06.

On to TTCGTTCCTC, for which the switch fluorescence ratio is 1.42.

With GGATTTACAC, the switch fluorescence ratio was 1.02.

In the case of ATCAATCTGA, the switch fluorescence ratio amounted to 0.949.

For CAAGGCGTTT, the switch fluorescence ratio turned out to be 1.02.

In the case of TCATAGGCGG, the switch fluorescence ratio worked out at 0.959.

Consider TGCTCCGATC, for which the switch fluorescence ratio was found to be 3.28.

For ACGGCATATT, the switch fluorescence ratio is 1.09.

As for GCGAATCAGC, the switch fluorescence ratio came out at 1.

Consider TATATATGTT, for which the switch fluorescence ratio was 1.03.

Take GTCCTGGGGA: the switch fluorescence ratio amounted to 1.33.

For the sequence AGTTCCGATG, the switch fluorescence ratio worked out at 1.44.

Regarding GGGCTTTGGT, the switch fluorescence ratio amounted to 0.99.

AGTTCTGATG: the switch fluorescence ratio came out at 1.01.

Regarding AAATCCCACC, the switch fluorescence ratio amounted to 1.07.

Turning to CGCTAGTTGT, the switch fluorescence ratio amounted to 1.02.

ATTGGTTGCT: the switch fluorescence ratio was determined as 0.994.

For AATTTCGTTA, the switch fluorescence ratio came to 1.01.

As to GTGAGCAGTT, the switch fluorescence ratio was found to be 1.01.

Regarding GTGACTTTC, the switch fluorescence ratio stood at 0.965.

In the case of GACAACGGCG, the switch fluorescence ratio amounted to 0.996.

With AAGATGCACG, the switch fluorescence ratio is 0.951.

As for CATAGTGGCG, the switch fluorescence ratio stood at 0.966.

Take TCCCATTGCG: the switch fluorescence ratio stood at 0.99.

Take GGGTCAGGAG: the switch fluorescence ratio was 0.971.

Turning to AGGAGTCTGA, the switch fluorescence ratio was determined as 0.954.

On to TGTTCTTCAG, for which the switch fluorescence ratio stood at 1.02.

For AGCGTTTTTG, the switch fluorescence ratio came to 0.976.

Regarding TGCATTTCTC, the switch fluorescence ratio worked out at 1.13.

For the sequence AACTTCGGG, the switch fluorescence ratio is 1.02.

Take GACGGTGTTG: the switch fluorescence ratio amounted to 0.987.

On to TGGAGCAACG, for which the switch fluorescence ratio stood at 1.38.

With CTACCCTCTG, the switch fluorescence ratio was 1.07.

Consider CTTAAAAGTG, for which the switch fluorescence ratio was 0.955.

TGTGAGAGTA: the switch fluorescence ratio amounted to 1.

For ACACTCTATC, the switch fluorescence ratio was found to be 1.1.

Consider CATGATTGTT, for which the switch fluorescence ratio was 1.01.

With GCCCTTGATG, the switch fluorescence ratio stood at 1.02.

Take TGAATGCCTG: the switch fluorescence ratio worked out at 1.03.

Take TTTCTTCATT: the switch fluorescence ratio amounted to 0.974.

Consider CGGGCAGGAG, for which the switch fluorescence ratio was found to be 0.984.

Regarding TTCTAATTGC, the switch fluorescence ratio came out at 0.977.

Turning to TTCTGGGCAA, the switch fluorescence ratio stood at 1.73.

On to TTGGCGCTTC, for which the switch fluorescence ratio was determined as 1.15.

As to GGCTCCTAAG, the switch fluorescence ratio was 0.981.

In the case of TTAGATAGGC, the switch fluorescence ratio turned out to be 0.931.

As for AAGAGGGAGC, the switch fluorescence ratio turned out to be 0.998.

For GTTCGACAGG, the switch fluorescence ratio worked out at 1.02.

As to ATCTTAAGT, the switch fluorescence ratio came out at 1.

TATAGACGGT: the switch fluorescence ratio amounted to 0.951.

As for AAGCCACTGT, the switch fluorescence ratio was 1.1.

In the case of CCCCCATGCT, the switch fluorescence ratio was 1.9.

GTGGTTGCT: the switch fluorescence ratio turned out to be 1.01.

Take TTACACCGCA: the switch fluorescence ratio was 1.67.

As to TGAAACAGCC, the switch fluorescence ratio is 1.05.

On to GTGGATAGTA, for which the switch fluorescence ratio turned out to be 0.986.

Take AGATTCCCTG: the switch fluorescence ratio is 0.983.

TGGCCGAATC: the switch fluorescence ratio worked out at 0.962.

As to AATTTTTCA, the switch fluorescence ratio came to 0.98.

As to GAGCTTATAA, the switch fluorescence ratio turned out to be 1.12.

Consider AATGGAGTAG, for which the switch fluorescence ratio worked out at 1.03.

Consider GATGCTATAT, for which the switch fluorescence ratio was 1.52.

As to AGAGTAGGCC, the switch fluorescence ratio is 1.01.

As to GACGCGAGTC, the switch fluorescence ratio is 1.16.

Consider CCGTTACGTG, for which the switch fluorescence ratio amounted to 1.07.

As to AGAACAGGGG, the switch fluorescence ratio came out at 1.24.

As to AAGCCTCTAT, the switch fluorescence ratio was 0.967.

Regarding GCATGGCGTA, the switch fluorescence ratio was 0.984.

For ACAGAAATAG, the switch fluorescence ratio turned out to be 1.01.

As for GAGCAGTTCG, the switch fluorescence ratio stood at 0.974.

As to ACAAGATCCA, the switch fluorescence ratio is 1.01.

Regarding CGGGTATGCA, the switch fluorescence ratio stood at 0.991.

For the sequence AAAAAGAGCT, the switch fluorescence ratio amounted to 1.

Take ATTTCGGTTT: the switch fluorescence ratio was determined as 0.965.

In the case of ACTCTGTACC, the switch fluorescence ratio is 1.1.

Turning to ATGAAGACG, the switch fluorescence ratio stood at 1.12.

In the case of GGCTGTGT, the switch fluorescence ratio was determined as 0.974.

In the case of TATGGCTTGC, the switch fluorescence ratio came to 0.992.

For GGAGGCACCC, the switch fluorescence ratio was 1.04.

On to TAAGCTTACT, for which the switch fluorescence ratio was determined as 1.21.

For the sequence TTAGACCCTA, the switch fluorescence ratio was found to be 1.05.

On to GCTGTTATTG, for which the switch fluorescence ratio came to 0.998.

With GAGGGTGAAC, the switch fluorescence ratio was 1.04.

As to GGGCCCAAGT, the switch fluorescence ratio was found to be 1.01.

Take TCGCGCATTT: the switch fluorescence ratio was found to be 1.08.

As to CATGATGTGC, the switch fluorescence ratio was found to be 0.936.

For AAAGTCTATA, the switch fluorescence ratio worked out at 1.04.

For the sequence GTATTCCTGT, the switch fluorescence ratio was 1.04.

On to TTGGTACCGA, for which the switch fluorescence ratio was 0.995.

On to CGTATTCCCG, for which the switch fluorescence ratio was determined as 0.968.

With GAACTCTCTA, the switch fluorescence ratio was 1.01.

With TAACGTACTG, the switch fluorescence ratio was found to be 1.78.

With TAGACTTCTT, the switch fluorescence ratio was found to be 0.973.

ATGGCGTCTG: the switch fluorescence ratio turned out to be 1.06.

As for GAAGATGGGC, the switch fluorescence ratio was 1.02.

For CCTAATCGTT, the switch fluorescence ratio was 0.999.

As for TCTGAGTTTC, the switch fluorescence ratio is 1.02.

TTTTAAATAT: the switch fluorescence ratio turned out to be 0.985.

Turning to AGTAATGTTG, the switch fluorescence ratio came to 0.989.
